Results reported in PMC5610480, “Original Chemical Series of Pyrimidine Biosynthesis Inhibitors That Boost the Antiviral Interferon Response” (Antimicrobial Agents and Chemotherapy, 2017).

What follows are compounds tested on ISRE-luciferase reporter gene (assay: ISRE-luciferase response to ssRNA transfection in STING-37 cells). Settings: 24 h, DD778, DD786 30 μM, dicoumarol 60 μM.
For Cc1ccc2oc(=O)c3c(c2c1)OC([N+](=O)[O-])C3c1c[nH]c2ccccc12 (stereo not drawn) [DD778], the “ISRE-luciferase expression in response to ssRNA transfection” value (“ISRE-luciferase expression in response” for short) was “amplified”.
For Cc1cc2c(c(=O)o1)C(c1c[nH]c3ccccc13)C([N+](=O)[O-])O2 (stereo not drawn) [DD786], the “ISRE-luciferase expression in response” value was “no effect”.
For O=c1oc2ccccc2c(O)c1Cc1c(O)c2ccccc2oc1=O [Dicoumarol, dicoumarol, reference compound], the “ISRE-luciferase expression in response” value was “amplified”.
